Data reported in the supplement of paper PMC8728848.
This is one part of the list.

Tests used:
Assay in all cases: glycan array binding signal (z-score within array); higher = stronger binding
Details in all cases: glycan notation: IUPAC condensed, linker removed
[1] = target: Fuc(a1-2)[GalNAc(a1-3)]Gal(b1-4)GlcNAc(b1-3)GalNAc
How it was run: (§1)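 Glycan array binding is given as a within-array Z-score, which can be read as non-binding when negative. The arrays, 3228 of them, came from the Consortium for Functional Glycomics database and were retained only where the protein sequence was available. Z-scores were averaged across arrays of the same protein sequence at different concentrations or buffers and across linkers.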

[2] = target: Fuc(a1-2)[GalNAc(a1-3)]Gal(b1-4)[Fuc(a1-3)]GlcNAc
How it was run: as §1

[3] = target: Fuc(a1-2)[GalNAc(a1-3)]Gal(b1-4)[Fuc(a1-3)]GlcNAc(b1-3)GalNAc
How it was run: as §1

[4] = target: Fuc(a1-2)[GalNAc(a1-4)]Gal(b1-4)GlcNAc
How it was run: as §1

[5] = target: Fuc(a1-2)[GalNAc(b1-3)]Gal
How it was run: as §1

[6] = target: Fuc(a1-3)GlcNAc
How it was run: as §1

[7] = target: Fuc(a1-3)[Gal(b1-4)]Glc6S
How it was run: as §1

[8] = target: Fuc(a1-3)[Gal(b1-4)]GlcNAc
How it was run: as §1

[9] = target: Fuc(a1-3)[Gal(b1-4)]GlcNAc(b1-2)Man(a1-3)[Fuc(a1-3)[Gal(b1-4)]GlcNAc(b1-2)Man(a1-6)]Man(b1-4)GlcNAc(b1-4)GlcNAc
How it was run: as §1

[10] = target: Fuc(a1-3)[Gal(b1-4)]GlcNAc(b1-2)Man(a1-3)[Fuc(a1-3)[Gal(b1-4)]GlcNAc(b1-2)Man(a1-6)]Man(b1-4)GlcNAc(b1-4)[Fuc(a1-6)]GlcNAc
How it was run: as §1

[11] = target: Fuc(a1-3)[Gal(b1-4)]GlcNAc(b1-3)Gal(b1-3)[Fuc(a1-4)]GlcNAc
How it was run: as §1

[12] = target: Fuc(a1-3)[Gal(b1-4)]GlcNAc(b1-3)GalNAc
How it was run: as §1

[13] = target: Fuc(a1-3)[Gal(b1-4)]GlcNAc(b1-4)Gal(b1-4)[Fuc(a1-3)]GlcNAc
How it was run: as §1

[14] = target: Fuc(a1-3)[Gal(b1-4)]GlcNAc(b1-4)Gal(b1-4)[Fuc(a1-3)]GlcNAc(b1-4)Gal(b1-4)[Fuc(a1-3)]GlcNAc
How it was run: as §1

[15] = target: Fuc(a1-3)[Gal(b1-4)]GlcNAc(b1-6)[Gal(b1-3)GlcNAc(b1-3)]Gal(b1-4)Glc
How it was run: as §1

[16] = target: Fuc(a1-3)[Gal(b1-4)]GlcNAc6S
How it was run: as §1

[17] = target: Fuc(a1-3)[Gal3S(b1-4)]GlcNAc
How it was run: as §1

[18] = target: Fuc(a1-3)[Gal3S(b1-4)]GlcNAc6S
How it was run: as §1

[19] = target: Fuc(a1-3)[GalNAc(b1-4)]GlcNAc
How it was run: as §1

[20] = target: Fuc(a1-4)GlcNAc
How it was run: as §1

[21] = target: Fuc(b1-3)GlcNAc
How it was run: as §1

[22] = target: Gal(a1-2)Gal
How it was run: as §1

[23] = target: Gal(a1-3)Gal
How it was run: as §1

[24] = target: Gal(a1-3)Gal(b1-3)GlcNAc
How it was run: as §1

[25] = target: Gal(a1-3)Gal(b1-3)GlcNAc(b1-2)Man(a1-3)[Gal(a1-3)Gal(b1-3)GlcNAc(b1-2)Man(a1-6)]Man(b1-4)GlcNAc(b1-4)GlcNAc
How it was run: as §1

[26] = target: Gal(a1-3)Gal(b1-3)GlcNAc(b1-3)GalNAc
How it was run: as §1

[27] = target: Gal(a1-3)Gal(b1-3)[Fuc(a1-4)]GlcNAc(b1-2)Man(a1-3)[Gal(a1-3)Gal(b1-3)[Fuc(a1-4)]GlcNAc(b1-2)Man(a1-6)]Man(b1-4)GlcNAc(b1-4)GlcNAc
How it was run: as §1

[28] = target: Gal(a1-3)Gal(b1-4)Glc
How it was run: as §1

[29] = target: Gal(a1-3)Gal(b1-4)GlcNAc
How it was run: as §1

[30] = target: Gal(a1-3)Gal(b1-4)GlcNAc(b1-3)GalNAc
How it was run: as §1

[31] = target: Gal(a1-3)Gal(b1-4)[Fuc(a1-3)]GlcNAc
How it was run: as §1

[32] = target: Gal(a1-3)Gal(b1-4)[Fuc(a1-3)]GlcNAc(b1-2)Man(a1-3)[Gal(a1-3)Gal(b1-4)[Fuc(a1-3)]GlcNAc(b1-2)Man(a1-6)]Man(b1-4)GlcNAc(b1-4)GlcNAc
How it was run: as §1

[33] = target: Gal(a1-3)GalNAc
How it was run: as §1

[34] = target: Gal(a1-3)[Gal(a1-4)]Gal(b1-4)GlcNAc
How it was run: as §1

[35] = target: Gal(a1-4)Gal(b1-3)GlcNAc(b1-2)Man(a1-3)[Gal(a1-4)Gal(b1-3)GlcNAc(b1-2)Man(a1-6)]Man(b1-4)GlcNAc(b1-4)GlcNAc
How it was run: as §1

[36] = target: Gal(a1-4)Gal(b1-4)Glc
How it was run: as §1

[37] = target: Gal(a1-4)Gal(b1-4)GlcNAc
How it was run: as §1

[38] = target: Gal(a1-4)Gal(b1-4)GlcNAc(b1-2)Man(a1-3)[Gal(a1-4)Gal(b1-4)GlcNAc(b1-2)Man(a1-6)]Man(b1-4)GlcNAc(b1-4)GlcNAc
How it was run: as §1

[39] = target: Gal(a1-4)Gal(b1-4)GlcNAc(b1-3)Gal(b1-4)Glc
How it was run: as §1

[40] = target: Gal(a1-4)GlcNAc
How it was run: as §1

[41] = target: Gal(a1-6)Glc
How it was run: as §1

[42] = target: Gal(b1-2)Gal
How it was run: as §1

[43] = target: Gal(b1-3)Gal
How it was run: as §1

[44] = target: Gal(b1-3)Gal(b1-4)GlcNAc
How it was run: as §1

[45] = target: Gal(b1-3)Gal(b1-4)GlcNAc(b1-2)Man(a1-3)[Gal(b1-3)Gal(b1-4)GlcNAc(b1-2)Man(a1-6)]Man(b1-4)GlcNAc(b1-4)GlcNAc
How it was run: as §1

B1: Tectonin 2 (Laccaria bicolor) (protein)
chain: MPWKGISGSLSRISAGSVTNVWGVNAANNIYRYTGDDAKPWVQIPGALTDIGAAADGTVWGVNAAGNIYRYVWDSNHWTQIKGALKRISAGSRTNVWGVNAGGAIYRYTGDDANPWVQIPGVLSDIGAGADGTVWGVNAAGEIYRYTGDQGDPNHWVKIPGALSAISAGIKTNVWGVNSANNIYTSTGDDKNPWLGIGGSLVDIGAGTDGVVWGVNAGGGIYRWIRD
glycan array binding signal (z-score) [1]: -0.357
glycan array binding signal (z-score) [2]: -0.145
glycan array binding signal (z-score) [3]: 0.192
glycan array binding signal (z-score) [4]: 0.114
glycan array binding signal (z-score) [5]: -0.321
glycan array binding signal (z-score) [6]: -0.411
glycan array binding signal (z-score) [7]: 0.06
glycan array binding signal (z-score) [8]: -0.401
glycan array binding signal (z-score) [9]: -0.23
glycan array binding signal (z-score) [10]: -0.086
glycan array binding signal (z-score) [11]: -0.402
glycan array binding signal (z-score) [12]: -0.138
glycan array binding signal (z-score) [13]: -0.172
glycan array binding signal (z-score) [14]: -0.16
glycan array binding signal (z-score) [15]: -0.431
glycan array binding signal (z-score) [16]: -0.169
glycan array binding signal (z-score) [17]: -0.074
glycan array binding signal (z-score) [18]: 0.299
glycan array binding signal (z-score) [19]: -0.324
glycan array binding signal (z-score) [20]: -0.511
glycan array binding signal (z-score) [21]: -0.311
glycan array binding signal (z-score) [22]: -0.124
glycan array binding signal (z-score) [23]: -0.089
glycan array binding signal (z-score) [24]: -0.36
glycan array binding signal (z-score) [25]: -0.028
glycan array binding signal (z-score) [26]: 0.13
glycan array binding signal (z-score) [27]: -0.008
glycan array binding signal (z-score) [28]: -0.283
glycan array binding signal (z-score) [29]: -0.238
glycan array binding signal (z-score) [30]: -0.175
glycan array binding signal (z-score) [31]: -0.363
glycan array binding signal (z-score) [32]: 0.016
glycan array binding signal (z-score) [33]: -0.446
glycan array binding signal (z-score) [34]: -0.362
glycan array binding signal (z-score) [35]: 0.015
glycan array binding signal (z-score) [36]: -0.283
glycan array binding signal (z-score) [37]: -0.423
glycan array binding signal (z-score) [38]: 0.389
glycan array binding signal (z-score) [39]: -0.355
glycan array binding signal (z-score) [40]: -0.375
glycan array binding signal (z-score) [41]: -0.479
glycan array binding signal (z-score) [42]: -0.425
glycan array binding signal (z-score) [43]: -0.268
glycan array binding signal (z-score) [44]: -0.137
glycan array binding signal (z-score) [45]: 1.02
